Article PMC2496901
No constants are given. Whether binding was seen depends on the method and setting. In cells and extracts the contact can be indirect. Some results given as binding are weak or reduced against the parent protein; the word gives no strength.

By UniProt entry, the sequences of proteins in these tests, tags left out. Where a name states a change or a piece, a line headed by the entry shows the natural chain unless it says otherwise. Chains listed by the source or under a name are the forms on record and can include a tag or linker.
UniProt O00629: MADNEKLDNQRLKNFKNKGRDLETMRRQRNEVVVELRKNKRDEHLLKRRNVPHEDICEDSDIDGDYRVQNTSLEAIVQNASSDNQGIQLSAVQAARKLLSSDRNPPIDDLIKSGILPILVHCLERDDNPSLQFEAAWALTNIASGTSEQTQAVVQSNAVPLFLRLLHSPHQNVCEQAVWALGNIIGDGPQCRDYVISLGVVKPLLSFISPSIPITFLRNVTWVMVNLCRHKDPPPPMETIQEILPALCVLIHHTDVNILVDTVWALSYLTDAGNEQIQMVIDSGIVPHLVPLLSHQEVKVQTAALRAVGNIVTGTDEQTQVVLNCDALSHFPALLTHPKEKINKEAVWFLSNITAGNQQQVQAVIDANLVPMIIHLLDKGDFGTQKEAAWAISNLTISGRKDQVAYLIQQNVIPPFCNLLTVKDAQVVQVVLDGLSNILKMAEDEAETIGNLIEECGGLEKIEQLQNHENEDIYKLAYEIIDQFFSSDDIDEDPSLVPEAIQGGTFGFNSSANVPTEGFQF
UniProt P52294: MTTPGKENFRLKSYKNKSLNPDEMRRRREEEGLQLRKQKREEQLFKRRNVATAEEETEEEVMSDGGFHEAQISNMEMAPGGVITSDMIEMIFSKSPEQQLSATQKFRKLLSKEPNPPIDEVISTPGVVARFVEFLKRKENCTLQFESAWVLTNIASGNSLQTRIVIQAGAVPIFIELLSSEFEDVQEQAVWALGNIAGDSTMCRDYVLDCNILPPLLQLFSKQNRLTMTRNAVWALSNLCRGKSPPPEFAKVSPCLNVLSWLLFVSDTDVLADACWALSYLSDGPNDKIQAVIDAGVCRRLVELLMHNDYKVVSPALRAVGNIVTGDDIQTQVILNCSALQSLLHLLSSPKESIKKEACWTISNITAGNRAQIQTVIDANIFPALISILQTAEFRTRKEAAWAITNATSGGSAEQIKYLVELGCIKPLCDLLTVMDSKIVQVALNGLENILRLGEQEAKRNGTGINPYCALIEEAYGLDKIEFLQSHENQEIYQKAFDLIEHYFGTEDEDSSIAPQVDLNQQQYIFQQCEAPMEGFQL
UniProt O88554: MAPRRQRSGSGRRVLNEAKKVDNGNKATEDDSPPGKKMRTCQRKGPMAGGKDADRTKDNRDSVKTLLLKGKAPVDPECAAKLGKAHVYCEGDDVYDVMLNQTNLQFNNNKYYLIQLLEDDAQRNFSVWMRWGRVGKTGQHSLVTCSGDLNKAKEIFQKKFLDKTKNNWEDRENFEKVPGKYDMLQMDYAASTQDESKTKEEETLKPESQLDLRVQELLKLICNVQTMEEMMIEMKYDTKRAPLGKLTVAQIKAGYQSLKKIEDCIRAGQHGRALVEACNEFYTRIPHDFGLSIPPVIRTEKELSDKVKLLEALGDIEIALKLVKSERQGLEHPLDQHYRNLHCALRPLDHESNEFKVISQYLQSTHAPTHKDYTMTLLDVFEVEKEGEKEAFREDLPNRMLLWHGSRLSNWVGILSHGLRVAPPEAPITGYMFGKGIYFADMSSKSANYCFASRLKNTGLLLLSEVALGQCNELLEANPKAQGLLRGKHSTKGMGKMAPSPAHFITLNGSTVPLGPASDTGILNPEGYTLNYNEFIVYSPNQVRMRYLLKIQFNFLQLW
HA-tagged PARP-2 K36/37R (O88554, form named): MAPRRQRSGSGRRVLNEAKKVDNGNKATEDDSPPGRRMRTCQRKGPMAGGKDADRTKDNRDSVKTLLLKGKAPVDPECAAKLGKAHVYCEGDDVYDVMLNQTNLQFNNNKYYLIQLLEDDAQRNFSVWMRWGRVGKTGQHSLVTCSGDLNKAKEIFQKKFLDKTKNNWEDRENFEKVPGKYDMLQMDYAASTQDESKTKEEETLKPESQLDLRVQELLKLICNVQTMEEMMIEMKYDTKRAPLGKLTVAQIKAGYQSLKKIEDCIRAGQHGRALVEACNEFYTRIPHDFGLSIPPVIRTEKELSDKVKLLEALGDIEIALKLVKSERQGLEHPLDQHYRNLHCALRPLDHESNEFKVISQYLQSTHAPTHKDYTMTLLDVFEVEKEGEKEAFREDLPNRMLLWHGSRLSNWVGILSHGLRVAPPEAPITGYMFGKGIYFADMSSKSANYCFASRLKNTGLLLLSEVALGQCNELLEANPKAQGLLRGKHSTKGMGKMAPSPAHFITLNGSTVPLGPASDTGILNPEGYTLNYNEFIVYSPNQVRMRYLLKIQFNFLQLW

How the values were obtained:
Assay in all cases: pull-down; purified GST-importin bound to Glutathione Sepharose 4B, incubated with whole cell extracts of HEK293T cells expressing HA-PARP-2; 50 mM Tris pH 8.0, 150 mM NaCl, 0.5% NP-40, 0.5 mM DTT; western blot with anti-HA; only the target purified
[1] = biological target: GST-importin α3 (human) (UniProt O00629)
[2] = biological target: GST-importin α5 (human) (UniProt P52294)
[3] = biological target: GST-importin α7 (human) (UniProt O60684)

Row | binding [1] | binding [2] | binding [3] | Substance
1 | no binding | – | – | HA-tagged PARP-2 K36/37R (from UniProt O88554 1-559)
2 | no binding | – | – | HA-tagged PARP-2 K36R (from UniProt O88554 1-559)
3 | binds | – | – | HA-tagged PARP-2 K37R (from UniProt O88554 1-559)
4 | binds | binds weakly | no binding | HA-tagged wild type PARP-2 (from UniProt O88554 1-559)
